Counter-ions that a name gives are not always drawn. ± gives the standard deviation of the averaged measurements. In all, about 1,900 compounds were measured (“normalised cell viability (NPI; 0 = phenylarsine oxide control, 1 = DMSO control)”: median about 1, lowest 2% from about 0.039 on). The list shows a part of the results.
Tested on: NCI-H1944
Test: normalised cell viability (NPI; 0 = phenylarsine oxide control, 1 = DMSO control) (fraction of DMSO control); NCI-H1944 is a non-small cell lung cancer line; higher = more viable cells (less compound toxicity)
Conditions: 6 days
[1] = glucocorticoid arm: hydrocortisone 2.75 uM co-treatment, compound 1 µM
[2] = glucocorticoid arm: hydrocortisone 2.75 uM co-treatment, compound 5 µM
[3] = glucocorticoid arm: hydrocortisone 2.75 uM pre-treated 2 days and continued, compound 1 µM
[4] = glucocorticoid arm: hydrocortisone 2.75 uM pre-treated 2 days and continued, compound 5 µM
[5] = glucocorticoid arm: vehicle, compound 1 µM
[6] = glucocorticoid arm: vehicle, compound 5 µM
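Further: CTB read-out in 384-well plates, mean of triplicate wells, normalised per plate against 1 µM phenylarsine oxide and 0.1% DMSO, compounds added 24 h after seeding.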

Compound | normalised cell viability [1] | normalised cell viability [2] | normalised cell viability [3] | normalised cell viability [4] | normalised cell viability [5] | normalised cell viability [6]
CCN(CC)CCNC(=O)c1ccc(NC(C)=O)cc1 [N-Acetylprocainamide hydrochloride] | 0.9787 ± 0.0049 | 0.974 ± 0.0099 | 0.9943 ± 0.0067 | 0.977 ± 0.027 | 0.9883 ± 0.0038 | 0.9807 ± 0.0087
CCCCCCN(CCCCCC)C(=O)Cc1c(-c2ccc(F)cc2)[nH]c2ccccc12 [N,N-Dihexyl-2-(4-fluorophenyl)indole-3-acetamide] | 0.9957 ± 0.0051 | 0.909 ± 0.019 | 1.001 ± 0.009 | 1.02 ± 0.017 | 0.9867 ± 0.004 | 1.01 ± 0.01
N#C[C@@H]1CCCN1C(=O)CNC12CC3CC(CC(O)(C3)C1)C2 [Vildagliptin (LAF-237)] | 0.994 ± 0.0087 | 1 ± 0.011 | 0.9973 ± 0.0046 | 1.004 ± 0.01 | 0.998 ± 0.012 | 1.01
CC(C)C[C@H](NC(=O)CNC(=O)c1cc(Cl)ccc1Cl)B(O)O | 0.978 ± 0.0095 | 0.886 ± 0.03 | 1.04 ± 0.01 | 1.04 ± 0.011 | 0.311 ± 0.032 | 0.0506 ± 0.0038
CNc1cc(NS(=O)(=O)c2ccc(N)cc2)nc(NC)n1 [Ro 04-6790 dihydrochloride] | 0.997 ± 0.0027 | 0.997 ± 0.02 | 1.01 ± 0.024 | 0.983 ± 0.013 | 0.9827 ± 0.008 | 0.993 ± 0.01
Oc1ccc(Nc2nc(-c3ccc(Cl)cc3)cs2)cc1 | 1.01 ± 0.011 | 1.05 ± 0.021 | 1.03 ± 0.01 | 1.023 ± 0.0058 | 1.007 ± 0.0058 | 1 ± 0.014
N#Cc1ccc2[nH]c(O)c(-c3ccc(CN4CCOCC4)cn3)c2c1 | 1.11 ± 0.021 | 1.24 ± 0.021 | 1.053 ± 0.0058 | 1.11 ± 0.023 | 1.02 ± 0.011 | 1.05 ± 0.015
COc1cc2ncnc(Nc3ccc(Cl)cc3F)c2cc1OC | 0.9033 ± 0.0086 | 0.707 ± 0.0017 | 0.907 ± 0.018 | 0.827 ± 0.059 | 0.921 ± 0.011 | 0.799 ± 0.025
N[C@@H]1CCCN(c2c(/C=C3\SC(=O)NC3=O)cccc2-c2ccccc2)C1 | 0.899 ± 0.019 | 0.855 ± 0.032 | 0.909 ± 0.021 | 0.92 ± 0.027 | 0.9852 ± 0.0073 | 0.9982 ± 0.0072
CO[C@H]1C[C@@H]2CC[C@@H](C)[C@@](O)(O2)C(=O)C(=O)N2CCCC[C@H]2C(=O)O[C@H]([C@H](C)C[C@@H]2CC[C@@H](O)[C@H](OC)C2)CC(=O)[C@H](C)/C=C(\C)[C@@H](O)[C@@H](OC)C(=O)[C@H](C)C[C@H](C)/C=C/C=C/C=C/1C [Sirolimus; RAPAMYCIN; Rapamycin(Sirolimus); Rapamycin] | 0.841 ± 0.032 | 0.775 ± 0.038 | 0.888 ± 0.018 | 0.886 ± 0.016 | 0.76 ± 0.025 | 0.654 ± 0.029
CO[C@H]1C[C@@H]2CC[C@@H](C)[C@@](O)(O2)C(=O)C(=O)N2CCCC[C@H]2C(=O)O[C@H]([C@H](C)C[C@@H]2CC[C@@H](O)[C@H](OC)C2)CC(=O)[C@H](C)/C=C(\C)[C@@H](O)[C@@H](OC)C(=O)[C@H](C)C[C@H](C)/C=C/C=C/C=C/1C [Rapamycin (Sirolimus)] | 0.808 ± 0.029 | 0.747 ± 0.043 | 0.837 ± 0.041 | 0.803 ± 0.058 | 0.713 ± 0.036 | 0.655 ± 0.02
Cc1[nH]c(/C=C2\C(=O)Nc3ccccc32)c(C)c1CCC(=O)O | 1.02 ± 0.01 | 1.053 ± 0.0058 | 1.01 ± 0.015 | 1.02 ± 0.044 | 1.01 ± 0.011 | 1.02 ± 0.015
CC(=O)N1CCN(c2ccc(OCC3COC(Cn4ccnc4)(c4ccc(Cl)cc4Cl)O3)cc2)CC1 (configuration not stated) [Ketoconazole] | 0.9503 ± 0.0045 | 0.934 ± 0.022 | 0.992 ± 0.016 | 1.06 ± 0.061 | 0.975 ± 0.001 | 0.993 ± 0.011
CC(C)NCC(O)c1ccc(NS(C)(=O)=O)cc1 (configuration not stated) [Sotalol] | 1 ± 0.014 | 0.993 ± 0.032 | 1.037 ± 0.0058 | 1.01 ± 0.017 | 1.01 | 0.9967 ± 0.0035
CC1=C(C)C(=O)C(CCCCC#CCCCC#CCO)=C(C)C1=O | 0.981 ± 0.01 | 0.936 ± 0.01 | 0.9697 ± 0.0065 | 0.934 ± 0.0085 | 0.97 ± 0.018 | 0.9673 ± 0.004
CN(C)CCCCSC(=N)N | 1.001 ± 0.0081 | 1.01 ± 0.011 | 1.02 ± 0.026 | 1.02 ± 0.011 | 0.9953 ± 0.0064 | 0.9883 ± 0.005
C1=N/C2=N/c3ccc(OCCN4CCCC4)c(c3)COC/C=C/COCc3cccc(c3)C(=C1)N2 [Pacritinib (SB1518)] | 0.6 ± 0.36 | 0.309 ± 0.33 | 0.724 ± 0.19 | 0.37 ± 0.38 | 0.531 ± 0.51 | 0.194 ± 0.21
CC(C)(C)NS(=O)(=O)c1cncc(-c2cc(F)c3nc(N)nn3c2)c1 | 1 ± 0.0095 | 0.988 ± 0.018 | 1.01 ± 0.022 | 0.984 ± 0.032 | 1.01 ± 0.013 | 1.01
CCN(CC)CCCC(C)Nc1c2ccc(Cl)cc2nc2ccc(OC)cc12 (configuration not stated) [Quinacrine dihydrochloride] | 0.999 ± 0.021 | 0.00304 ± 0.0019 | 1.01 ± 0.023 | 1.01 ± 0.014 | 0.995 ± 0.014 | 0.00159 ± 0.0012
Cn1c(=O)c2[nH]c(-c3ccc(S(=O)(=O)O)cc3)nc2n(C)c1=O [8-(p-Sulfophenyl)theophylline] | 0.984 ± 0.0061 | 0.998 ± 0.011 | 0.9847 ± 0.0035 | 0.976 ± 0.013 | 0.983 ± 0.013 | 0.9763 ± 0.0051
C[C@@H]1O[C@@H]1P(=O)(O)O [Phosphomycin disodium] | 1.001 ± 0.0078 | 1.01 ± 0.018 | 0.9957 ± 0.0021 | 1.03 ± 0.05 | 1.01 ± 0.011 | 1.02 ± 0.015
CC#CCOC(=O)c1c(C)nc2sc3c(c2c1N)CCC(O)C3 (configuration not stated) | 1.02 ± 0.021 | 1 ± 0.019 | 1.03 ± 0.038 | 1.03 ± 0.017 | 1.013 ± 0.0058 | 1.013 ± 0.0058
